Among the data in PMC3335016, “Analysis of the Nse3/MAGE-Binding Domain of the Nse4/EID Family Proteins” (PLoS ONE, 2012) are binding values, retold here.

These are yes or no findings as the source states them, for the method shown. Tags and fused reporters may be left off the sequences shown.

What all share (test): ELISA; PEPSCAN ELISA; biotinylated EID2 peptides (400 nM) on streptavidin-coated plates; His-S-MAGEC2(129-339) 200–400 nM, 4°C overnight; anti-His detection; both purified
A general note: An ELISA detects its analyte on a solid surface through an enzyme-linked reagent.

One assay has as its target T1, EID2 peptide #16 (I212A) (human, I212A (stands in the printed letters), biotin, linked via the SGSG spacer).
T1 construct: source: synthetic peptide (Mimotopes)
T1 peptide: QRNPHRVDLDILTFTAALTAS

Another assay addresses T2, EID2 peptide #14 (F210A) (human, F210A (stands in the printed letters), biotin, linked via the SGSG spacer).
T2 construct: source: synthetic peptide (Mimotopes)
T2 peptide: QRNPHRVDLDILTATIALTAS

A further assay addresses T3, EID2 peptide #2 (R198A) (human, R198A (stands in the printed letters), biotin, linked via the SGSG spacer).
T3 construct: source: synthetic peptide (Mimotopes)
T3 peptide: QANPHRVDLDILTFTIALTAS

The target in the next assay is T4, EID2 peptide #17 (L214A) (human, L214A (stands in the printed letters), biotin, linked via the SGSG spacer).
T4 construct: source: synthetic peptide (Mimotopes)
T4 peptide: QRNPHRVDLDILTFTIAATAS

The next assay concerns the target T5, EID2 peptide #6 (R202A) (human, R202A (stands in the printed letters), biotin, linked via the SGSG spacer).
T5 construct: source: synthetic peptide (Mimotopes)
T5 peptide: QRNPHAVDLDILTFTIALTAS

B1: His-S-MAGEC2(129-339) (domain or fragment, human, UniProt Q9UBF1 129-339, looked up)
chain: GLPDSESSFTYTLDEKVAELVEFLLLKYEAEEPVTEAEMLMIVIKYKDYFPVILKRAREFMELLFGLALIEVGPDHFCVFANTVGLTDEGSDDEGMPENSLLIIILSVIFIKGNCASEEVIWEVLNAVGVYAGREHFVYGEPRELLTKVWVQGHYLEYREVPHSSPPYYEFLWGPRAHSESIKKKVLEFLAKLNNTVPSSFPSWYKDALKD
notes: source: E. coli C41, purified (His-TRAP column, FPLC)
Turning to B1, the binding entry with EID2 peptide #16 (I212A), with EID2 peptide #14 (F210A), with EID2 peptide #2 (R198A), with EID2 peptide #17 (L214A) and in the assay with EID2 peptide #6 (R202A) was “no binding (tested: less then 20% of WT affinity)” each time.
